# This is one part of the list.
# How the values were obtained:
# Assay in all cases: glycan array binding signal (z-score within array); higher = stronger binding
# Conditions in all cases: glycan notation: IUPAC condensed, linker removed
# [1] = biological target: Fuc(a1-2)[GalNAc(a1-3)]Gal(b1-4)GlcNAc(b1-3)Gal(b1-4)GlcNAc
# Outline: (§1)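 Glycan array binding is given as a within-array Z-score, which can be read as non-binding when negative. The arrays, 3228 of them, came from the Consortium for Functional Glycomics database and were retained only where the protein sequence was available. Z-scores were averaged across arrays of the same protein sequence at different concentrations or buffers and across linkers.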
# [2] = biological target: Fuc(a1-2)[GalNAc(a1-3)]Gal(b1-4)GlcNAc(b1-3)Gal(b1-4)GlcNAc(b1-3)Gal(b1-4)GlcNAc
# Outline: as §1
# [3] = biological target: Fuc(a1-2)[GalNAc(a1-3)]Gal(b1-4)[Fuc(a1-3)]GlcNAc
# Outline: as §1
# [4] = biological target: Fuc(a1-2)[GalNAc(a1-4)]Gal(b1-4)GlcNAc
# Outline: as §1
# [5] = biological target: Fuc(a1-2)[GalNAc(b1-3)]Gal
# Outline: as §1
# [6] = biological target: Fuc(a1-3)GlcNAc
# Outline: as §1
# [7] = biological target: Fuc(a1-3)[Gal(b1-4)]Glc6S
# Outline: as §1
# [8] = biological target: Fuc(a1-3)[Gal(b1-4)]GlcNAc
# Outline: as §1
# [9] = biological target: Fuc(a1-3)[Gal(b1-4)]GlcNAc(b1-2)Man(a1-3)[Fuc(a1-3)[Gal(b1-4)]GlcNAc(b1-2)Man(a1-6)]Man(b1-4)GlcNAc(b1-4)GlcNAc
# Outline: as §1
# [10] = biological target: Fuc(a1-3)[Gal(b1-4)]GlcNAc(b1-3)Gal(b1-3)[Fuc(a1-4)]GlcNAc
# Outline: as §1
# [11] = biological target: Fuc(a1-3)[Gal(b1-4)]GlcNAc(b1-3)GalNAc
# Outline: as §1
# [12] = biological target: Fuc(a1-3)[Gal(b1-4)]GlcNAc(b1-4)Gal(b1-4)[Fuc(a1-3)]GlcNAc
# Outline: as §1
# [13] = biological target: Fuc(a1-3)[Gal(b1-4)]GlcNAc(b1-4)Gal(b1-4)[Fuc(a1-3)]GlcNAc(b1-4)Gal(b1-4)[Fuc(a1-3)]GlcNAc
# Outline: as §1
# [14] = biological target: Fuc(a1-3)[Gal(b1-4)]GlcNAc(b1-6)[Gal(b1-3)GlcNAc(b1-3)]Gal(b1-4)Glc
# Outline: as §1
# [15] = biological target: Fuc(a1-3)[Gal(b1-4)]GlcNAc6S
# Outline: as §1
# [16] = biological target: Fuc(a1-3)[Gal3S(b1-4)]GlcNAc
# Outline: as §1
# [17] = biological target: Fuc(a1-3)[Gal3S(b1-4)]GlcNAc6S
# Outline: as §1
# [18] = biological target: Fuc(a1-3)[GalNAc(b1-4)]GlcNAc
# Outline: as §1
# [19] = biological target: Fuc(a1-4)GlcNAc
# Outline: as §1
# [20] = biological target: Fuc(b1-3)GlcNAc
# Outline: as §1
# [21] = biological target: Gal(a1-2)Gal
# Outline: as §1
# [22] = biological target: Gal(a1-3)Gal
# Outline: as §1
# [23] = biological target: Gal(a1-3)Gal(b1-3)GlcNAc
# Outline: as §1
# [24] = biological target: Gal(a1-3)Gal(b1-3)GlcNAc(b1-2)Man(a1-3)[Gal(a1-3)Gal(b1-3)GlcNAc(b1-2)Man(a1-6)]Man(b1-4)GlcNAc(b1-4)GlcNAc
# Outline: as §1
# [25] = biological target: Gal(a1-3)Gal(b1-3)[Fuc(a1-4)]GlcNAc(b1-2)Man(a1-3)[Gal(a1-3)Gal(b1-3)[Fuc(a1-4)]GlcNAc(b1-2)Man(a1-6)]Man(b1-4)GlcNAc(b1-4)GlcNAc
# Outline: as §1
# [26] = biological target: Gal(a1-3)Gal(b1-4)Glc
# Outline: as §1
# [27] = biological target: Gal(a1-3)Gal(b1-4)GlcNAc
# Outline: as §1
# [28] = biological target: Gal(a1-3)Gal(b1-4)GlcNAc(b1-3)GalNAc
# Outline: as §1
# [29] = biological target: Gal(a1-3)Gal(b1-4)[Fuc(a1-3)]GlcNAc
# Outline: as §1
# [30] = biological target: Gal(a1-3)Gal(b1-4)[Fuc(a1-3)]GlcNAc(b1-2)Man(a1-3)[Gal(a1-3)Gal(b1-4)[Fuc(a1-3)]GlcNAc(b1-2)Man(a1-6)]Man(b1-4)GlcNAc(b1-4)GlcNAc
# Outline: as §1
# [31] = biological target: Gal(a1-3)GalNAc
# Outline: as §1
# [32] = biological target: Gal(a1-3)[Gal(a1-4)]Gal(b1-4)GlcNAc
# Outline: as §1
# [33] = biological target: Gal(a1-4)Gal(b1-3)GlcNAc(b1-2)Man(a1-3)[Gal(a1-4)Gal(b1-3)GlcNAc(b1-2)Man(a1-6)]Man(b1-4)GlcNAc(b1-4)GlcNAc
# Outline: as §1
# [34] = biological target: Gal(a1-4)Gal(b1-4)Glc
# Outline: as §1
# [35] = biological target: Gal(a1-4)Gal(b1-4)GlcNAc
# Outline: as §1
# [36] = biological target: Gal(a1-4)Gal(b1-4)GlcNAc(b1-2)Man(a1-3)[Gal(a1-4)Gal(b1-4)GlcNAc(b1-2)Man(a1-6)]Man(b1-4)GlcNAc(b1-4)GlcNAc
# Outline: as §1
# [37] = biological target: Gal(a1-4)Gal(b1-4)GlcNAc(b1-3)Gal(b1-4)Glc
# Outline: as §1
# [38] = biological target: Gal(a1-4)GlcNAc
# Outline: as §1
# [39] = biological target: Gal(a1-6)Glc
# Outline: as §1
# [40] = biological target: Gal(b1-2)Gal
# Outline: as §1
# [41] = biological target: Gal(b1-3)Gal
# Outline: as §1
# [42] = biological target: Gal(b1-3)Gal(b1-4)GlcNAc
# Outline: as §1
# [43] = biological target: Gal(b1-3)Gal(b1-4)GlcNAc(b1-2)Man(a1-3)[Gal(b1-3)Gal(b1-4)GlcNAc(b1-2)Man(a1-6)]Man(b1-4)GlcNAc(b1-4)GlcNAc
# Outline: as §1
# [44] = biological target: Gal(b1-3)GalNAc
# Outline: as §1
# [45] = biological target: Gal(b1-3)GalNAc(a1-3)[Fuc(a1-2)]Gal(b1-4)Glc
# Outline: as §1
binder,measurement,setting,value
"Ecp6 (Cladosporium fulvum), B3VBK9 (protein) MQSMILFAAALMGAAVNGFVLPRTDDPDCETKATDCGSTSNIKYTVVKGDTLTSIAKKFKSGICNIVSVNKLANPNLIELGATLIIPENCSNPDNKSCVSTPAEPTETCVPGLPGSYTIVSGDTLTNISQDFNITLDSLIAANTQIENPDAIDVGQIITVPVCPSSQCEAVGTYNIVAGDLFVDLAATYHTTIGQIKALNNNVNPSKLKVGQQIILPQDCKNVTTAVA",glycan array binding signal (z-score),[1],-0.063
same,glycan array binding signal (z-score),[2],-0.085
same,glycan array binding signal (z-score),[3],-0.094
same,glycan array binding signal (z-score),[4],-0.095
same,glycan array binding signal (z-score),[5],-0.077
same,glycan array binding signal (z-score),[6],-0.089
same,glycan array binding signal (z-score),[7],-0.102
same,glycan array binding signal (z-score),[8],-0.06
same,glycan array binding signal (z-score),[9],-0.106
same,glycan array binding signal (z-score),[10],-0.094
same,glycan array binding signal (z-score),[11],-0.088
same,glycan array binding signal (z-score),[12],-0.069
same,glycan array binding signal (z-score),[13],-0.068
same,glycan array binding signal (z-score),[14],-0.098
same,glycan array binding signal (z-score),[15],-0.103
same,glycan array binding signal (z-score),[16],-0.098
same,glycan array binding signal (z-score),[17],-0.073
same,glycan array binding signal (z-score),[18],-0.089
same,glycan array binding signal (z-score),[19],-0.098
same,glycan array binding signal (z-score),[20],-0.083
same,glycan array binding signal (z-score),[21],-0.1
same,glycan array binding signal (z-score),[22],-0.071
same,glycan array binding signal (z-score),[23],-0.065
same,glycan array binding signal (z-score),[24],-0.052
same,glycan array binding signal (z-score),[25],-0.056
same,glycan array binding signal (z-score),[26],-0.067
same,glycan array binding signal (z-score),[27],-0.064
same,glycan array binding signal (z-score),[28],-0.102
same,glycan array binding signal (z-score),[29],-0.102
same,glycan array binding signal (z-score),[30],-0.093
same,glycan array binding signal (z-score),[31],-0.083
same,glycan array binding signal (z-score),[32],-0.078
same,glycan array binding signal (z-score),[33],-0.099
same,glycan array binding signal (z-score),[34],-0.1
same,glycan array binding signal (z-score),[35],-0.102
same,glycan array binding signal (z-score),[36],-0.075
same,glycan array binding signal (z-score),[37],-0.101
same,glycan array binding signal (z-score),[38],-0.102
same,glycan array binding signal (z-score),[39],-0.065
same,glycan array binding signal (z-score),[40],-0.087
same,glycan array binding signal (z-score),[41],-0.082
same,glycan array binding signal (z-score),[42],-0.104
same,glycan array binding signal (z-score),[43],-0.096
same,glycan array binding signal (z-score),[44],-0.081
same,glycan array binding signal (z-score),[45],-0.1

# Source: the supplement of paper PMC8728848
